In all, about 420,000 compounds went through this assay and about 64,000 (15%) were called active. The shares of active, inactive and inconclusive entries below differ from those in the screen. Calls follow the shape of the dose curve; as a rule, active = well fitted inhibition curve with a large enough effect; inconclusive = small, poorly fitted or top-dose-only effect; inactive = flat fitted curve, though single readings scatter. Potencies of inconclusive entries are left out as doubtful fits.
Assay: qHTS for Inhibitors of human tyrosyl-DNA phosphodiesterase 1 (TDP1): qHTS in cells in absence of CPT; also: nearly all actives have a fitted effect of over 55% in size
Conditions: DT40 Tdp1-/- hTDP1 cells, no CPT, ATP luminescence, 48 h; activity change, negative = growth inhibition: at 46.2 µM (top of the series) unless noted
Procedure, shortened: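 Growth of hTDP1-complemented DT40 Tdp1-knockout cells is measured by ATP luminescence after at least 48 hr compound exposure at 37 °C, with DMSO substituting for the 20 nM CPT used in the parallel screen.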
% is scaled to controls: 0 for no effect and ±100 for the full control effect; potency is read from the fitted curve at half-maximal effect; tags tell the direction and shape of the fitted curve.

Compound | activity change, negative = growth inhibition | Potency
CCOc1ccc(C(=O)NCc2ccc3c(c2)CCN3C(=O)c2ccc(Cl)cc2)cc1 | inactive: 2.13% | –
O=C(Nc1ccc(F)cc1)OCCOc1ccc([N+](=O)[O-])cc1 | inconclusive: -20.1% [inhibitor] | –
Cc1ccccc1Nc1cc(C(=O)NCCCN2CCN(c3cccc(Cl)c3)CC2)c2ccccc2n1 | – | inconclusive [inhibitor, single point]
Cc1cc(Nc2cccc(C)c2C)n2nc(C)nc2n1 | inactive: -21.3% | –
O=C(COC(=O)/C(=C/c1cccs1)c1cccs1)NC(c1ccccc1)c1ccccc1 | – | active: 16.4 µM
CCCc1nn(C)c2c1C(c1cccnc1)C(C#N)=C(N)O2 (stereo unspecified) | inactive: -23.9% | –
CC(C)C(=O)Nc1ccc2nc(SCC(=O)N3CCCC3)sc2c1 | – | inconclusive [inhibitor, single point]
CCC/C(=N\NC(=O)c1cccc(C)c1)c1ccccc1 | – | inconclusive [inhibitor, partial curve, poor fit]
CN(CC(=O)Nc1cccc(F)c1)C(=O)c1ccccc1OCC(=O)Nc1cccc(C(F)(F)F)c1 | – | inconclusive [inhibitor, single point]
COc1ccc(Cl)cc1C(=O)Nc1ccccc1N1CCN(C(=O)C(C)C)CC1 | – | active: 18.4 µM
O=[N+]([O-])c1ccc(N2CCOCC2)cc1O | – | inconclusive [inhibitor, single point]
CC(C)(Cc1cccc(CC(C)(C)C(=O)O)c1)C(=O)O | inactive: -1.18% | –
Cc1ccccc1N(CC(=O)NCCSc1ccccn1)S(=O)(=O)c1ccccc1 | – | inconclusive [inhibitor, single point]
CN(CC(=O)Nc1ccc(F)cc1)CC(=O)N1CCc2ccccc21 | – | inconclusive [inhibitor, single point]
Cc1ccc(C(C)C)c(OCCSc2nc(-c3ccccc3F)nc3cc(=O)[nH]n23)c1 | – | inconclusive [inhibitor, single point]
CCc1ccc(NC(=O)c2ccc(CN3CC(=O)N4CCCCC4C3=O)cc2)cc1 (stereo unspecified) | – | active: 20.6 µM
Cc1ccc(Cn2c(C(=O)O)c(CNCc3ccc(OC(C)C)cc3)c3ccc(C)cc32)cc1 | – | inconclusive [inhibitor, single point]
COc1cc(OC)c(NC(=O)C2CCN(S(=O)(=O)c3c(C)noc3/C=C/c3c(C)cc(C)cc3C)CC2)cc1Cl | inactive: -18.7% | –
CCOC(=O)C1CCCCN1Cc1ccc(-c2ccccc2)cc1 (stereo unspecified) | – | inconclusive [inhibitor, single point]
COc1ccc(OC)c(NC(=O)CSc2ccc(-c3cccs3)nn2)c1 | – | inconclusive [inhibitor, partial curve]
CNC(=O)c1[nH]cnc1C(=O)N[C@@H](C)C(=O)OC(C)(C)C | inactive: -11.4% | –
CC(=O)OCC1OC(n2ccc3ccccc32)C(OC(C)=O)C(OC(C)=O)C1OC(C)=O (stereo unspecified) | – | inconclusive [inhibitor, single point]
Cc1ccc(S(=O)(=O)NC(=O)C2(C)CCN2C(=O)Cc2ccc(-c3ccccc3)cc2)nc1 (stereo unspecified) | inactive: 2.71% | –

Compound | activity change, negative = growth inhibition | Potency
COc1cccc(CNC(=O)c2cc(C)nc3c2c(C)nn3-c2ccc(C)cc2)c1 | – | active: 16.4 µM
COc1cccc(-n2c(=O)c3c(C)c(C)sc3n(CC(=O)NCCc3ccc(OC)c(OC)c3)c2=O)c1 | inactive: -13.2% | –
O=C(NC1CCN(S(=O)(=O)c2cccc(F)c2)CC1)c1ccc(F)cc1 | inactive: -25.7% | –
COc1ccc(CC(=O)NCC2CCCN(Cc3cccc(C(F)(F)F)c3)C2)cc1 (stereo unspecified) | – | inconclusive [inhibitor, partial curve, poor fit]
O=S(=O)(NCC(c1ccco1)N1CCN(c2ccccc2F)CC1)c1ccccc1 (stereo unspecified) | – | inconclusive [inhibitor, partial curve]
NC(=O)c1sc2nc3c(c(-c4ccccc4)c2c1N)CCC3 | – | active: 13 µM
Cc1cc(OCCCCCn2ccnc2)cc(C)c1Cl | – | active: 13 µM
O=C(NCc1ccc(Cl)c(Cl)c1)c1ccc2c(c1)OCO2 | inactive: 0.841% | –
COc1cccc(OCc2nc3ccccc3n2CCOc2ccc(C)cc2)c1 | – | active: 16.4 µM
CCN1CCN(S(=O)(=O)c2ccc(Cl)c(C(=O)N(C)Cc3ccco3)c2)CC1 | – | inconclusive [inhibitor, single point]
CCOc1ccc(/C=C2\SC(=S)N(CCC(=O)Nc3ccccc3C(=O)O)C2=O)cc1 | inactive: -27.4% | –
CC(=O)c1cccc(NC(=O)c2ccc3c(c2)OCO3)c1 | – | inconclusive [inhibitor, single point]
CCc1ccc(NC(=O)COc2coc(CN3CCc4ccccc4C3)cc2=O)cc1 | – | inconclusive [inhibitor, single point]
O=C(O)C1CCCN1C(=O)C1CCN(S(=O)(=O)c2cccc(C(F)(F)F)c2)CC1 (stereo unspecified) | inactive: -4.88% | –
Cc1cc(OCC(=O)Nc2ccccc2N2CCCC2)ccc1C(C)C | – | inconclusive [inhibitor, single point]
COc1ccc2[nH]cc(CCNC(C)=O)c2c1 | – | inactive
COC(=O)c1ccc(C(=O)OC)c(NC(=S)N2CCN(C(=O)C3CCCO3)CC2)c1 (stereo unspecified) | inactive: -2.31% | –
CCOc1ccc(C(=O)NC(C(=O)NCc2ccccc2OC)C(C)C)cc1 (stereo unspecified) | – | inconclusive [inhibitor, single point]
COc1c(C)cc(C(O)c2ncc(-c3cccc(F)c3)[nH]2)cc1C (stereo unspecified) | – | inconclusive [inhibitor, single point]
Cc1ccccc1NC(=O)c1oc(=O)c2ccccc2c1-c1ccccc1 | – | inconclusive [inhibitor, single point]
O=C(CCCOc1ccc(Cl)cc1Cl)n1nnc2ccccc21 | – | inconclusive [inhibitor, single point]
Cc1ccc(OCC(=O)Nc2cc(-c3nn4c(C)nnc4s3)ccc2C)cc1 | – | inconclusive [inhibitor, partial curve]
CCOC(=O)c1c(NC(=O)C(C)Sc2cn(CCNC(=O)c3c(F)cccc3F)c3ccccc23)sc2c1CCC2 (stereo unspecified) | – | active: 16.4 µM
